“And” between values parts separate entries of the source, which are not always exact repeats. Equal values may be shown once. Among all 310,000 compounds or so, about 11,000 (3.5%) were called active. This list was built around the results that the source calls inconclusive (neither active nor inactive); the mix of calls is not that of the screen. Calls follow the shape of the dose curve; as a rule, active = well fitted inhibition curve with a large enough effect; inconclusive = small, poorly fitted or top-dose-only effect, or effect the other way; inactive = flat fitted curve, though single readings scatter. Potencies of inconclusive entries are left out as doubtful fits. The source holds several records for some structures; these can differ, active in one and inactive in another.
Assay: VP16 counterscreen qHTS for inhibitors of ROR gamma transcriptional activity;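 also: Gal4-VP16 expression switched on by copper sulfate through the metallothionein promoter; nearly all actives have a fitted effect of over 50% in size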
Conditions: Drosophila S2 Gal4-VP16 UAS-luciferase, luminescence, 20 h; series mostly up to 53.6 µM
Potency is read from the fitted curve at half-maximal effect; tags tell the direction and shape of the fitted curve.

SMILES | Potency
Nc1nc(-c2cccs2)c(NC(=O)c2ccccc2)s1 | inconclusive [inhibitor, single point]
COCC(=O)N/N=C/c1c(C)[nH]n(-c2ccccc2)c1=O | inconclusive [inhibitor, partial curve, poor fit]
COc1ccc(NC(=S)N=Nc2c(O)[nH]c3ccccc23)cc1 | active: 3.55 µM
Cc1cccc(CSc2ncc(CO)n2C)c1 | inactive
Cc1ccc(C)c(NS(=O)(=O)c2ccc(-c3ccc(=O)[nH]n3)o2)c1 | inactive
Nc1nonc1-n1nnc(C(=O)N/N=C/c2cccc(Cl)c2Cl)c1CN1CCCC1 | inconclusive [inhibitor, single point]
CCc1ccc(NC(=O)NCCN2CCc3ccccc3C2)cc1 | inconclusive [activator, single point]
CC(=O)N1CCN(c2nc3cc4c(cc3nc2NS(=O)(=O)c2ccccc2)OCCO4)CC1 | inactive
O=C(NC(c1ccccc1)c1cc(Cl)c2cccnc2c1O)c1cccnc1 (configuration not stated) | active: 0.794 µM
Oc1c(Br)cc(Br)cc1/C=N/NC(=S)N[C@H]1CC2C=CC1C2 (some centres not stated) | inconclusive [inhibitor, single point]
COc1ccc(C(=O)NC(=S)Nc2cccc3ncccc23)cc1[N+](=O)[O-] | inconclusive [inhibitor, single point]
COc1cccc2c1OC[C@@H](CO)[C@H]2N(C)C(=O)Nc1ccc(Cl)cc1Cl | inactive
COc1ccccc1NS(=O)(=O)c1cccc(NC(=O)Nc2cccc(Cl)c2)c1 | inconclusive [inhibitor, single point]
CC(=O)N1CCc2cc(S(=O)(=O)C(C)CC(=O)NCc3ccc(C)o3)ccc21 (configuration not stated) | inactive
Cc1ccc(S(=O)(=O)CC(=O)Nc2ccc(S(=O)(=O)Nc3onc(C)c3C)cc2)cc1 | inactive
Cc1ccc(-c2noc(CCC(=O)NCCCN3CCN(c4cccc(Cl)c4)CC3)n2)cc1 | active: 14.1 µM
CCc1c(C)sc(NC(=S)NC(C)C2CCCO2)c1C(=O)OC (configuration not stated) | active: 10 µM
CC(C)c1ccc(NC(=S)Nc2ccc(OC(F)(F)F)cc2)cc1 | active: 11.2 µM
Cn1c(=O)c2c(nc(NCCNC(=O)c3ccco3)n2Cc2ccccc2F)n(C)c1=O | inconclusive [inhibitor, single point]
O=C(c1ccc(Cl)cc1)C1CCN(Cc2ccccc2)CC1 | inactive
O=[N+]([O-])c1ccccc1N/N=C/c1ccc2c(c1)OCO2 | inconclusive [activator, single point]
N#CCCn1cc(/C=N/NC(N)=S)c(-c2ccc(-c3ccccc3)cc2)n1 | active: 3.16 µM
COc1ccc(Cn2nnnc2CN(CCCN2CCOCC2)Cc2cc3cc(OC)ccc3[nH]c2=O)cc1 | inactive
CCOC(=O)C1CCCCN1C(=O)c1ccc2nc(Cc3ccc(OC)cc3)oc2c1 (configuration not stated) | inactive
CN(Cc1ccccc1)C(=O)c1ccc(COc2ccccc2)cc1 | inactive
CCN(CC(=O)NCCc1ccc(F)cc1)Cc1nc2ccccc2c(=O)[nH]1 | inconclusive [inhibitor, single point]

SMILES | Potency
COc1ccc(/C=N/NC(=S)Nc2cccc(C(=O)O)c2)cc1 | active: 11.2 µM
N#CC1=C(Nc2ccccc2)SC=C(c2ccc(Cl)c(Cl)c2)N=C1N1CCOCC1 | inactive
COc1ccccc1C(=O)Nc1ccccc1SC(=O)c1ccccc1OC | inconclusive [inhibitor, single point]
OCc1cn(-c2ccccc2)nc1-c1cc2ccccc2o1 | active: 11.2 µM
CC1=CC(C)(C)n2c(O)c(N=NC(N)=S)c3cccc1c32 | active: 2 µM
O=C1NC(=S)SC1=C1CCCCCC1 | inconclusive [inhibitor, single point]
O=C(NC(=S)NCCC1=CCCCC1)c1ccco1 | inconclusive [inhibitor, single point]
C(/CCc1ccccc1)=N\Nc1nc2ccccc2[nH]1 | inactive
COc1cccc(N2CCN(C(=S)Nc3cccc(C)c3)CC2)c1 | inactive
Cn1cccc1/C=C1\SC(=S)N(NC(=O)c2ccc(Cl)cc2)C1=O | inconclusive [inhibitor, single point]
Cc1ccccc1/C=c1\s/c(=C\C(=O)C(C)(C)C)[nH]c1=O | active: 0.891 µM
Cc1ccc(CNc2oc(-c3ccco3)nc2S(=O)(=O)c2ccccc2)cc1 | inconclusive [inhibitor, single point]
O=C(NCc1cccnc1)c1ccc(COc2ccccc2Cl)cc1 | inconclusive [inhibitor, single point]
COc1ccc(C(CNC(=O)COc2ccc(C)c(C)c2)N2CCCCC2)cc1 (configuration not stated) | inactive
COc1cc2ccccc2cc1C(=O)Nc1nnc(-c2ccncc2)o1 | active: 10 µM
O=C(NCCc1ccc2c(c1)OCCO2)c1ccccn1 | inconclusive [inhibitor, single point]
S=C(NCCc1ccc(Cl)cc1)NCc1ccccc1 | inconclusive [inhibitor, single point]
CN=c1scc(-c2ccccc2Br)n1/N=C/c1ccc[nH]1 | inconclusive [inhibitor, single point]
CNC(=O)NC(=O)C(C)OC(=O)c1c2c(nc3ccccc13)/C(=C/c1cccs1)CC2 (configuration not stated) | active: 0.126 µM
COc1cc(C(=O)O/N=C2\C=CC(=O)C=C2C)cc(OC)c1OC | active: 3.98 µM
Nc1ncc([N+](=O)[O-])cc1Br | inactive
COc1ccc(Cn2c(=O)cc(C)[nH]c2=S)cc1 | inconclusive [inhibitor, single point]
Cn1c(=O)oc2cc(S(=O)(=O)N3CCCC(C(=O)N4CC=C(c5ccccc5)CC4)C3)ccc21 (configuration not stated) | inconclusive [inhibitor, single point]
Cc1cccc(-c2n[nH]c(=S)n2C)c1 | inconclusive [inhibitor, single point]
O=C(Nc1cccc(NC(=O)N2CCN(c3ccccc3)CC2)c1)N1CCN(c2ccccc2)CC1 | inconclusive [inhibitor, single point]
Cn1nc(N)c2c(-c3ccc(Cl)cc3)c(C#N)c(N)nc21 | inconclusive [inhibitor, single point]

SMILES | Potency
CCC1CCc2c(sc3nc(SCC(=O)NCc4ccco4)n(-c4ccccc4)c(=O)c23)C1 (configuration not stated) | inconclusive [inhibitor, single point]
CCOc1ccc(-c2cc(C(=O)NCCCn3ccnc3)c3cc(Br)ccc3n2)cc1 | inconclusive [inhibitor, single point]
Cc1ccc(/C=C/c2nc3ccccc3c(=O)[nH]2)cc1 | inconclusive [inhibitor, full curve]
CCOC(=O)c1sc(N/N=C/c2ccc(N(C)C)cc2)nc1C | active: 11.2 µM
COc1ccc(/C=N/Nc2nc(C)cc(-c3ccccc3)n2)cc1OC | inconclusive [inhibitor, single point]
COc1cccc2sc(N(CCCN(C)C)C(=O)CCS(=O)(=O)c3ccccc3)nc12 | inconclusive [inhibitor, single point]
CC(=O)c1ccc(NC(=O)CSc2nc(=O)cc(N)n2-c2ccccc2)cc1 | inactive
Cc1cc(C)c(NC(=O)c2ccc(S(=O)(=O)N(C)C)cc2)c(C)n1 | inactive
COc1ccc(-c2nnc(SCC(=O)NCC3CCCO3)o2)cc1 (configuration not stated) | inconclusive [inhibitor, single point]
COc1ccc(CN2CN(C(C)C)CSC2=S)cc1 | inactive
O=C(CCN1CCC(c2ccccc2)C1)c1ccc2c(c1)OCCO2 (configuration not stated) | inactive and active: 7.08 µM
CCn1c(SCC(=O)Nc2ccccc2OC)nc2ccccc2c1=O | inactive
Cc1[nH]nc2c1-c1nc3ccccc3nc1C(C)(C)C2 | active: 3.16 µM
C1CCCCCC(=NNc2nn[nH]n2)CCCCC1 | inactive
COc1cccc(/C=C2/Sc3ccc(C(=O)NCCCN4CCCC4)cc3NC2=O)c1 | inconclusive [inhibitor, single point]
O=C(Nc1ccccc1F)c1ccc2snnc2c1 | inconclusive [activator, full curve, poor fit]
COc1ccc(-n2cc(CNC3CCN(C)CC3)c(-c3cccc(F)c3)n2)cc1 | inconclusive [inhibitor, single point]
O=C(NC(=S)N1CCN(c2ccc([N+](=O)[O-])cc2)CC1)c1ccco1 | active: 1.41 µM
COC(=O)/C=C/C(=O)Nc1ccc(O)c(Cl)c1 | inconclusive [inhibitor, single point]
O=[N+]([O-])c1ccc(-n2cc(-c3ccccc3)nn2)cc1 | inconclusive [activator, partial curve, poor fit]
CCOc1ccc(N2C(=O)CC(NNc3nc4ccccc4s3)C2=O)cc1 (configuration not stated) | inconclusive [inhibitor, single point]
CCn1c2ccccc2c2n[nH]c(=S)nc21 | active: 8.91 µM
COc1cccc(CN(C)CC(=O)NC(=O)NCc2ccco2)c1 | inactive
CCn1nc(C)cc1C(=O)Sc1cccc(Br)c1 | inconclusive [inhibitor, single point]
O=C(CCCN1C(=O)/C(=C/c2cccs2)SC1=S)NNC(=O)c1cccnc1 | inconclusive [inhibitor, partial curve]

Reference: PubChem BioAssay AID2546 (National Center for Advancing Translational Sciences (NCATS), 2010)
